According to the supplement of paper PMC4604168 (melanoma cell lines):
The list shows a part of the results. Many values rest on one well or one pass, so single values are uncertain.

Legend:
Assay in all cases: cell count relative to DMSO control; melanoma cells; higher = more viable cells
Conditions in all cases: library dose: standard library concentration; 72 h
[1] = tested on: G361
[2] = tested on: IPC-298
[3] = tested on: IST-MEL1
[4] = tested on: LB2518-MEL
[5] = tested on: LOXIMVI
[6] = tested on: MEL-HO
[7] = tested on: MZ2-MEL
[8] = tested on: MeWo
[9] = tested on: RPMI7951
[10] = tested on: RVH-421
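Also: cells treated in 1,536-well plates, then fixed and DAPI-stained, with nuclei counted from automated high-throughput microscope images.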

Structure (SMILES)	cell count [1] [%]	cell count [2] [%]	cell count [3] [%]	cell count [4] [%]	cell count [5] [%]	cell count [6] [%]	cell count [7] [%]	cell count [8] [%]	cell count [9] [%]	cell count [10] [%]
NC1(c2ccc(-c3nc4ccn5c(=O)[nH]nc5c4cc3-c3ccccc3)cc2)CCC1 + Nc1ccn([C@@H]2O[C@H](CO)[C@@H](O)C2(F)F)c(=O)n1 [gemcitabine] (first compound 2 µM, partner dose 0.002 µM)	36.5	38.1	42.2	51.8	54.3	43.5	63.1	37	62.8	41.2
CCCS(=O)(=O)Nc1ccc(F)c(C(=O)c2c[nH]c3ncc(Cl)cc23)c1F + CC1(C)NC(=O)N(c2ccc([N+](=O)[O-])c(C(F)(F)F)c2)C1=O [nilutamide] (first compound 0.4 µM, partner dose 5 µM)	62.8	94.2	83.8	84	91.5	97.3	94.1	108	156	109
NC1(c2ccc(-c3nc4ccn5c(=O)[nH]nc5c4cc3-c3ccccc3)cc2)CCC1 + O=c1cc(-c2cccc3c2Sc2ccccc2S3)oc(N2CCOCC2)c1 [KU55933] (first compound 2 µM, partner dose 5 µM)	71.6	90.9	79.2	81.5	116	60.4	78.9	85	92.5	79.3
CN(c1ncccc1CNc1nc(Nc2ccc3c(c2)CC(=O)N3)ncc1C(F)(F)F)S(C)(=O)=O + NC(=O)Nc1cc(-c2cccc(F)c2)sc1C(=O)N[C@H]1CCCNC1 [AZD7762] (first compound 0.4 µM, partner dose 0.1 µM)	80.3	109	96.4	102	64.4	93	97	110	50.1	127
NC1(c2ccc(-c3nc4ccn5c(=O)[nH]nc5c4cc3-c3ccccc3)cc2)CCC1 + CC1(C)NC(=O)N(c2ccc([N+](=O)[O-])c(C(F)(F)F)c2)C1=O [nilutamide] (first compound 2 µM, partner dose 5 µM)	86.9	104	67.5	72	80.1	79.7	121	78.9	87.7	67.5
C=C(c1ccc(C(=O)O)cc1)c1cc2c(cc1C)C(C)(C)CCC2(C)C [Bexarotene] + CCCS(=O)(=O)Nc1ccc(F)c(C(=O)c2c[nH]c3ncc(Cl)cc23)c1F [PLX4720] (first compound 10 µM, partner dose 0.4 µM)	70.7	68.7	76.6	83	103	62.4	37.4	92.1	80	69.5
NC1(c2ccc(-c3nc4ccn5c(=O)[nH]nc5c4cc3-c3ccccc3)cc2)CCC1 + O=S(=O)(c1ccccc1)N(CC(F)(F)F)c1ccc(C(O)(C(F)(F)F)C(F)(F)F)cc1 [T0901317] (first compound 2 µM, partner dose 7 µM)	85.9	87.1	79	86	68.3	83	79.9	65.7	61.3	110
CN(c1ncccc1CNc1nc(Nc2ccc3c(c2)CC(=O)N3)ncc1C(F)(F)F)S(C)(=O)=O + O=C1NC(=O)/C(=C/c2ccc(-c3ccc(F)cc3O)o2)S1 [AS252424] (first compound 0.4 µM, partner dose 5 µM)	76.3	83.6	88.6	94.6	85.9	74.1	83.7	85.3	86.9	96.9
CS(=O)(=O)c1ccc(C(=O)Nc2ccc(Cl)c(-c3ccccn3)c2)c(Cl)c1 [vismodegib] + c1cc(-c2cnn3cc(-c4ccc(OCCN5CCCCC5)cc4)cnc23)ccn1 [Dorsomorphin] (first compound 5 µM, partner dose 2 µM)	43	83.9	74.2	82.5	108	81	71.2	63	61.4	132
CCCS(=O)(=O)Nc1ccc(F)c(C(=O)c2c[nH]c3ncc(Cl)cc23)c1F + C[C@@H]1CCN(C(=O)CC#N)C[C@@H]1N(C)c1ncnc2[nH]ccc12 [CP690550] (first compound 0.4 µM, partner dose 5 µM)	60.4	83.1	46.1	103	93	75.5	85.7	86.3	80.3	89
NC1(c2ccc(-c3nc4ccn5c(=O)[nH]nc5c4cc3-c3ccccc3)cc2)CCC1 + O=C(O)c1ccc2c(c1)nc(Nc1cccc(Cl)c1)c1ccncc12 [CX4945] (first compound 2 µM, partner dose 2 µM)	53.9	67.3	68.9	99.3	50.8	44.3	66.5	75.2	57.1	61.4
NC1(c2ccc(-c3nc4ccn5c(=O)[nH]nc5c4cc3-c3ccccc3)cc2)CCC1 + O=C(O)c1ccc(-c2c[nH]c3ncc(-c4ccccc4)cc23)cc1C1CCCC1 [GSK650394] (first compound 2 µM, partner dose 0.8 µM)	53.8	97.9	78.7	93.5	82.7	73.5	104	86.6	91.9	76.6
CN(c1ncccc1CNc1nc(Nc2ccc3c(c2)CC(=O)N3)ncc1C(F)(F)F)S(C)(=O)=O + N#Cc1c(O)c2c(-c3ccc(-c4ccccc4O)cc3)csc2[nH]c1=O [A769662] (first compound 0.4 µM, partner dose 10 µM)	131	110	90.9	92.4	105	108	106	101	96	132
CN(c1ncccc1CNc1nc(Nc2ccc3c(c2)CC(=O)N3)ncc1C(F)(F)F)S(C)(=O)=O + Cn1cncc1[C@@](N)(c1ccc(Cl)cc1)c1ccc2c(c1)c(-c1cccc(Cl)c1)cc(=O)n2C [tipifarnib] (first compound 0.4 µM, partner dose 0.05 µM)	72.7	83.3	75.6	77.7	81.6	95.2	91.5	85.3	75.5	75.3
CN(c1ncccc1CNc1nc(Nc2ccc3c(c2)CC(=O)N3)ncc1C(F)(F)F)S(C)(=O)=O + CC(C)CCN1c2nc(Nc3cc(F)c(O)c(F)c3)ncc2N(C)C(=O)C1C [BID1870] (first compound 0.4 µM, partner dose 1 µM)	57.7	66.7	77	85.2	97.1	67.5	74.8	73.7	75.4	68.3
CN(c1ncccc1CNc1nc(Nc2ccc3c(c2)CC(=O)N3)ncc1C(F)(F)F)S(C)(=O)=O + CN(C)S(=O)(=O)c1ccc2c(c1)/C(=C/c1cc3c([nH]1)CCCC3)C(=O)N2 [SU6656] (first compound 0.4 µM, partner dose 2 µM)	67.7	62.9	71.3	59.8	95.6	81.3	74.2	75.4	48.2	59.4
NC1(c2ccc(-c3nc4ccn5c(=O)[nH]nc5c4cc3-c3ccccc3)cc2)CCC1 + CN(C)S(=O)(=O)c1ccc2c(c1)/C(=C/c1cc3c([nH]1)CCCC3)C(=O)N2 [SU6656] (first compound 2 µM, partner dose 2 µM)	68.6	85.9	66.9	67.2	94.2	64.3	101	76.7	56.7	101
CCCS(=O)(=O)Nc1ccc(F)c(C(=O)c2c[nH]c3ncc(Cl)cc23)c1F + COCC[n+]1c2c(n(Cc3cnccn3)c1C)C(=O)c1ccccc1C2=O [YM155] (first compound 0.4 µM, partner dose 0.002 µM)	61.7	48.7	39.4	25.7	44.8	70.1	16.3	42.6	36.2	29.6
CS(=O)(=O)c1ccc(C(=O)Nc2ccc(Cl)c(-c3ccccn3)c2)c(Cl)c1 [vismodegib] + CS(=O)(=O)CCNCc1ccc(-c2ccc3ncnc(Nc4ccc(OCc5cccc(F)c5)c(Cl)c4)c3c2)o1 [lapatinib] (first compound 5 µM, partner dose 4 µM)	41.6	70.5	92.6	104	93.5	59.3	55.6	75.7	67.2	80.8
CCCS(=O)(=O)Nc1ccc(F)c(C(=O)c2c[nH]c3ncc(Cl)cc23)c1F + Cn1cc(/C=C2\C(=O)Nc3cccnc32)c2ccccc21 [GW441756] (first compound 0.4 µM, partner dose 2 µM)	66.5	87.3	97.7	104	130	82.4	81.8	106	118	91.7
CS(=O)(=O)c1ccc(C(=O)Nc2ccc(Cl)c(-c3ccccn3)c2)c(Cl)c1 [vismodegib] + O=S(=O)(c1ccccc1)N(CC(F)(F)F)c1ccc(C(O)(C(F)(F)F)C(F)(F)F)cc1 [T0901317] (first compound 5 µM, partner dose 7 µM)	74.8	74.5	93.7	93.4	113	88.2	91.7	83.9	82	117
NC1(c2ccc(-c3nc4ccn5c(=O)[nH]nc5c4cc3-c3ccccc3)cc2)CCC1 + Cn1c(Nc2ccc(C(F)(F)F)cc2)nc2cc(Oc3ccnc(-c4ncc(C(F)(F)F)[nH]4)c3)ccc21 [CHIR265] (first compound 2 µM, partner dose 0.4 µM)	6.9	49.9	72.5	34.4	70.7	44.7	58.8	57.4	35.6	55.2
CCCS(=O)(=O)Nc1ccc(F)c(C(=O)c2c[nH]c3ncc(Cl)cc23)c1F + CCc1ccc(CCOc2ccc(CC3SC(=O)NC3=O)cc2)nc1 [pioglitazone] (first compound 0.4 µM, partner dose 10 µM)	62.8	65.9	79.7	93.8	98.5	72.4	82.1	85	93.1	68.3
